# Laboratory results published in the supplement of paper PMC6746778.
# Where a name gives a salt, the structure may show the parent alone. This is one part of the list. Repeats are few or missing, and single values can be far off.
# Experiments:
# Assay in all cases: proliferation Z-score within cell line (SRB, relative to all inhibitors screened on that line); triple-negative breast cancer lines and a kinase inhibitor library; SRB is the sulforhodamine B protein stain; higher = less growth inhibition (more resistant)
# Conditions in all cases: concentration: 1 µM; 4 days
# Bt20 = test system: Bt20
# Bt549 = test system: Bt549
# HCC1143 = test system: HCC1143
# HCC1806 = test system: HCC1806
# HCC1937 = test system: HCC1937
# HCC38 = test system: HCC38
# HCC70 = test system: HCC70
# Hs578T = test system: Hs578T
# MDA-MB-231 = test system: MDA-MB-231
# MDA-MB-435s = test system: MDA-MB-435s
# MDA-MB-436 = test system: MDA-MB-436
# MDA-MB-453 = test system: MDA-MB-453
# MDA-MB-468 = test system: MDA-MB-468
# SKBR7 = test system: SKBR7
# SUM1315MO2 = test system: SUM1315MO2
# SUM149PT = test system: SUM149PT
# SUM159PT = test system: SUM159PT
# SUM185PE = test system: SUM185PE
# SUM229PE = test system: SUM229PE
# SUM52PE = test system: SUM52PE
# 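Note: Single-dose primary screen of a 378-member kinase inhibitor library in 96-well plates, with growth read as absorbance of protein-bound SRB dye after TCA fixation.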
SMILES,proliferation Z-score within cell line (Bt20),proliferation Z-score within cell line (Bt549),proliferation Z-score within cell line (HCC1143),proliferation Z-score within cell line (HCC1806),proliferation Z-score within cell line (HCC1937),proliferation Z-score within cell line (HCC38),proliferation Z-score within cell line (HCC70),proliferation Z-score within cell line (Hs578T),proliferation Z-score within cell line (MDA-MB-231),proliferation Z-score within cell line (MDA-MB-435s),proliferation Z-score within cell line (MDA-MB-436),proliferation Z-score within cell line (MDA-MB-453),proliferation Z-score within cell line (MDA-MB-468),proliferation Z-score within cell line (SKBR7),proliferation Z-score within cell line (SUM1315MO2),proliferation Z-score within cell line (SUM149PT),proliferation Z-score within cell line (SUM159PT),proliferation Z-score within cell line (SUM185PE),proliferation Z-score within cell line (SUM229PE),proliferation Z-score within cell line (SUM52PE)
Cc1cc(F)c(Nc2ncnc3cc(OCc4ccccc4)ccc23)cc1O,0.4,0.436,0.55,0.542,0.597,0.419,0.586,0.399,0.444,0.654,0.413,0.695,0.309,0.175,0.288,0.143,0.412,0.325,0.258,0.412
CC(C)(C#N)c1ccc(N2C(=O)OCc3cnc4ccc(-c5cnc6ccccc6c5)cc4c32)cc1,-0.731,-1.62,0.119,0.367,-0.356,-0.128,-0.585,-1.88,-0.181,0.0801,-0.906,-1.13,0.152,-1.69,-0.887,-0.316,0.128,-1.22,-0.215,-0.577
C[C@H](NC(=O)/C(C#N)=C/c1cccc(Br)n1)c1ccccc1,0.922,0.65,0.765,0.687,0.691,0.613,0.609,0.777,1,0.907,0.437,0.821,1.09,0.376,1.1,0.912,0.605,1.01,0.738,1.28
COc1ccc(-c2ccc3ncc4c(c3c2)n(-c2ccc(N3CCNCC3)c(C(F)(F)F)c2)c(=O)n4C)cn1,-1.86,-1.99,-2.1,-2.05,-1.98,-2.33,-1.87,-2.1,-1.66,-1.81,-1.71,-1.66,-1.55,-1.9,-1.19,-1.58,-2.15,-1.61,-1.91,-1.25
COc1cc2nccc(Oc3ccc(NC(=O)Nc4ccc(F)cc4F)c(F)c3)c2cc1OC,0.337,0.629,0.703,1.64,0.961,0.532,0.84,0.665,0.77,0.845,1.43,0.829,0.659,0.888,0.498,1.01,0.677,0.191,0.579,-0.389
CC(C)(C)NS(=O)(=O)c1cncc(-c2cc(F)c3nc(N)nn3c2)c1,0.77,0.634,0.564,0.759,0.789,0.521,0.541,0.5,0.661,0.913,1.04,0.725,0.854,0.874,1.27,0.876,0.487,1.99,1.05,1.27
CCN1CCN(Cc2ccc(Nc3ncc(F)c(-c4cc(F)c5nc(C)n(C(C)C)c5c4)n3)nc2)CC1,-0.504,-0.407,-1.4,-0.658,0.0936,0.323,0.536,-0.38,-1.81,-1.35,-1.01,-1.53,-0.309,-0.989,-0.21,-0.902,-0.359,0.0935,-0.816,-0.725
Cc1ccc([N+](=O)[O-])cc1S(=O)(=O)N(C)/N=C/c1cnc2ccc(Br)cn12,-3.14,-3.43,-3.72,-1.62,-3.27,-2.81,-3.3,-3.11,-2.64,-2.72,-3.24,-2.1,-2.49,-2.9,-2.85,-3.17,-4.08,-2.11,-3.02,-2.12
CCn1c2ccccc2c2cc(Nc3ccnc(NCCCN4CCOCC4)n3)ccc21,0.94,0.446,0.681,0.494,0.584,0.425,0.59,0.365,0.637,0.497,0.947,0.714,0.53,0.457,0.509,0.541,0.352,1.1,0.725,1.17
CCCCCCCCCCCCc1ccc(S(=O)(=O)Nc2nncs2)cc1,0.965,0.751,0.73,0.918,0.335,0.566,0.419,0.585,0.99,0.858,0.719,0.901,1.17,1.25,1.09,0.59,0.504,1.25,0.694,1.34
Cn1cc(-c2ccc3nnc(C(F)(F)c4ccc5ncccc5c4)n3n2)cn1,0.0858,0.304,0.494,0.127,0.435,0.133,0.427,0.497,0.882,0.447,0.644,0.11,0.787,0.0993,0.391,0.248,0.106,0.54,0.0431,0.629
Cc1cc(C)nc(NS(=O)(=O)c2ccc(NC(=S)NC(=O)COc3ccc(Br)cc3Cl)cc2)n1,-0.137,0.349,0.382,0.934,0.205,0.44,0.302,0.176,0.505,0.434,0.076,0.513,0.516,-0.3,-0.0157,0.224,0.136,-0.286,-0.353,-0.298
NCC(=O)Nc1ccc(-n2nc(C(F)(F)F)cc2-c2ccc3c(ccc4ccccc43)c2)cc1,1.28,0.699,1.22,0.806,0.853,0.499,0.888,0.44,-0.634,0.716,0.677,0.77,-0.118,0.382,1.13,0.862,0.63,1.45,0.639,1.07
CN1CCN(c2cccc(Nc3nc4c(-c5ccc(S(C)(=O)=O)cc5)cccn4n3)c2)CC1,0.801,0.797,0.706,0.822,0.685,0.634,0.865,0.814,0.619,0.437,0.811,1.03,0.534,0.554,0.23,0.223,0.768,0.474,0.683,1.05
CN1CC[C@H](c2c(O)cc(O)c3c(=O)cc(-c4ccccc4Cl)oc23)[C@H](O)C1 [Flavopiridol HCl],-1.99,-2.05,-2.21,-1.97,-2.29,-2.47,-1.92,-2.13,-1.58,-1.78,-1.95,-1.45,-1.57,-1.94,-2.2,-1.96,-2.31,-1.08,-1.81,-1.18
COc1cc(C(=O)NC2CCN(C)CC2)ccc1Nc1ncc2c(n1)N(C1CCCC1)CC(F)(F)C(=O)N2C,-2.94,-2.68,-2.7,-1.44,-2.44,-3.06,-0.673,-1.91,-2.6,-2.27,-1.85,-1.64,-2.42,-2.78,-2.22,-2.82,-3.31,-1.34,-1.57,-1.58
O=C(NCCCNc1nc(Nc2cccc(NC(=O)N3CCCC3)c2)ncc1I)c1cccs1,0.0178,0.165,-0.396,0.726,-0.0694,0.38,0.708,-0.0234,-1.08,-0.585,0.571,0.0699,-1.26,-0.541,-0.874,0.181,0.567,0.0316,0.0967,-0.359
"CCCS(=O)(=O)Nc1ccc(F)c(C(=O)c2c[nH]c3ncc(-c4ccc(Cl)cc4)cc23)c1F [Vemurafenib (PLX4032, RG7204)]",0.089,0.543,-0.771,0.759,-1.9,0.654,-1.98,0.764,0.646,-1.5,-1.68,0.788,0.579,0.487,0.457,0.752,-1.24,0.236,1.28,0.118
NC1(Cc2ccc(Cl)cc2)CCN(c2ncnc3[nH]ccc23)CC1,-0.273,0.121,0.542,0.911,0.0461,0.639,-0.623,0.169,0.721,0.786,0.448,0.241,-0.175,0.484,0.476,0.378,0.69,-0.103,1.14,0.964
O=C(Nc1ccc(OC(F)(F)F)cc1)c1sccc1NCc1ccnc2ccccc12,0.429,0.615,0.629,1.22,0.555,0.292,0.487,0.399,0.697,0.628,0.463,0.726,0.485,0.739,0.472,0.715,0.393,0.159,1.42,0.446
O=C1NC(=O)/C(=C/c2ccc(-c3ccc(F)cc3O)o2)S1,0.721,0.699,0.775,0.695,0.696,0.477,0.739,0.783,0.976,0.659,0.555,0.834,0.768,0.401,1.15,0.994,0.543,0.778,0.817,1.09
NC(=O)Nc1sc(-c2ccc(F)cc2)cc1C(N)=O,0.881,0.569,0.843,0.0104,0.495,0.622,0.589,0.828,0.543,0.237,0.0082,0.886,0.36,0.346,0.342,0.332,0.74,0.979,1.16,1.13
CN1CCC(CNc2ccc3ncc(-c4cccc(OC(F)(F)F)c4)n3n2)CC1 [SGI-1776 free base],0.578,0.321,-3.25,0.202,-4.1,0.46,-2.74,0.316,0.764,0.578,-3.34,0.682,0.652,0.629,0.211,0.45,0.304,0.616,0.0718,1.16
COc1ncc(-c2ccc3nccc(-c4ccnnc4)c3c2)cc1NS(=O)(=O)c1ccc(F)cc1F,-2.01,-2,-2.06,-1.82,-2.34,-2.41,-1.87,-2.03,-1.5,-1.54,-1.82,-1.52,-1.57,-1.77,-1.06,-1.89,-2.13,-1.54,-1.91,-1.26
C=CCc1ccc(O)c(-c2ccc(O)c(CC=C)c2)c1 [Honokiol],0.118,0.586,0.59,0.673,0.706,0.349,0.506,0.416,0.292,0.619,0.483,0.684,0.388,0.792,0.575,0.548,0.399,0.602,0.92,0.723
